Measured values taken from PubChem BioAssay AID493208 (National Center for Advancing Translational Sciences (NCATS), 2011).
About 340 (0.77%) of roughly 44,000 compounds were called active. Inconclusive results (about 5%) are left out. Calls come from the whole dose curve; as a rule, active = well fitted inhibition curve with a large enough effect; inconclusive = small, poorly fitted or top-dose-only effect; inactive = flat fitted curve, though single readings scatter. Some of the results follow.

Assay: Acumen qHTS Assay for Inhibitors of the mTORC1 Signaling Pathway in MEF (Tsc2-/-, p53-/-) Cells: Sytravon; note: nearly all actives have a fitted effect of over 50% in size;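 for activity change, negative = inhibition: plate controls were DMSO for no effect and rapamycin for full effect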
Conditions: phospho-rpS6 immunofluorescence/PI, 24 h; series mostly up to 38.3 µM; activity change, negative = inhibition: at the top concentration
Summary of the method: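 Read-out: phospho-S6 Alexa-488 intensity over PI intensity per well, scored as % active cells using thresholds from rapamycin (7.5 nM) and DMSO controls. Tsc2-/-, p53-/- MEFs exposed to compound for 24 h; PI cell count recorded as viability.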
Potency is the fitted concentration of half-maximal effect.

| SMILES | activity change, negative = inhibition | Potency |
| --- | --- | --- |
| Cc1cn2c(=O)cc(COc3cccc(NC(=O)c4ccccc4C)c3)nc2s1 | inactive: -1.41% | – |
| COc1ccc(NC(=O)C2CCN(S(=O)(=O)c3ccc4[nH]c(=O)ccc4c3)CC2)c(OC)c1 | inactive: 0.138% | – |
| CCOC(=O)c1[nH]c(C)c(CCC(=O)NCc2ccccc2)c1C | inactive: 7.73% | – |
| COc1ccc(OC)c(NC(=O)Cc2coc3ccc(C(C)C)cc23)c1 | inactive: -7.18% | – |
| CCOC(=O)c1c(-c2ccccc2)oc2ccc(N(C(C)=O)S(=O)(=O)c3cc(C)ccc3C)cc12 | inactive: -3.26% | – |
| CCOc1ccc(CNC(=O)C2CCN(c3nnc(-n4cccc4CNc4ccc(C)cc4)s3)CC2)cc1OC | inactive: -0.246% | – |
| CCc1c(C)nc(SCC(=O)N2CCN(c3ccccc3OC)CC2)[nH]c1=O | inactive: -1.55% | – |
| Cc1ccc(O)c(C(CC(=O)NCC2(c3ccccc3)CCCC2)c2ccccc2)c1 (stereo unspecified) | – | active: 18.5 µM |
| CCOC(=O)c1ccccc1NC(=O)Cn1cc(C(=O)c2cccc(OC)c2)c(=O)c2ccc(C)nc21 | inactive: 1.72% | – |
| CCOC(=O)c1c(C)[nH]c(CCC(=O)NCCCN2CCN(c3ccc(F)cc3)CC2)c1C | inactive: 10.1% | – |
| Cc1cccc(-c2nc(S(=O)(=O)c3ccc(F)cc3)c(N3CCN(c4ccccc4)CC3)o2)c1 | inactive: -0.0713% | – |
| CC(C)c1ccc(NC(=O)c2cc3c(s2)-c2ccccc2SC3)cc1 | inactive: -1.13% | – |
| Cc1ccc(CCNC(=O)c2ccc3c(c2)N(Cc2cccc(C)c2)C(=O)c2ccccc2S3(=O)=O)cc1 | inactive: -9.43% | – |
| Cc1cc(=O)[nH]c2nnc(SCC(=O)NC(C)(C)C)n12 | inactive: 2.86% | – |
| O=C(CN1C(=O)COc2ccc(S(=O)(=O)N3CCCCCC3)cc21)NCc1ccc(Cl)cc1 | inactive: -9.55% | – |
| COc1cc2c(cc1OC)C(COc1ccccc1OC)N(C(=O)CC(C)C)CC2 (stereo unspecified) | inactive: 9.29% | – |
| COc1ccc(Cl)cc1Nc1sc(C(=O)c2ccccc2)c(N)c1C(=O)Nc1ccccc1 | inactive: 1.01% | – |
| CC(=O)N1CCc2cc(CNS(=O)(=O)c3ccc(F)cc3)ccc21 | inactive: 0% | – |
| CCc1ccc(-c2cn3c(n2)sc2cc(C(=O)NC4CCCCCC4)ccc23)cc1 | inactive: 5.45% | – |
| O=C(NCc1cccc(Cl)c1)c1cc2c(s1)-c1ccccc1OC2 | inactive: -2.75% | – |
| CCc1c(C)sc2c1CCN(Cc1cccc(F)c1)C2c1ccccc1 (stereo unspecified) | inactive: 7.34% | – |
| COCCc1nn2c(=O)cc(COC(=O)c3ccc4c(c3)OCO4)nc2s1 | inactive: -3.2% | – |
| CC(=O)Nc1ccc(C(=O)CSc2nnc(-c3ccccc3)n2-c2ccccc2)cc1 | inactive: 15.3% | – |
| Cc1ccc(NC2=C(c3ccc(C(F)(F)F)cc3)C(=O)c3ccccc32)cc1C | inactive: 1.74% | – |
| Cc1ccc(-c2cc(C(=O)NCc3cnn(C)c3C)c3cc(Br)ccc3n2)cc1 | inactive: -0.741% | – |
| Cc1ccc(S(=O)(=O)c2nc(-c3ccccc3F)oc2N2CCCCC2)cc1 | inactive: -4.25% | – |
